This experiment deals with RSV. Kind of experiment: Temperature shift assay (virus attachment at 4 °C vs post-binding). The conditions noted are these: compound present with RSV at 4 °C for 1 h, then unbound virus and compound washed away, shift to 37 °C.
Turning to `CN(C)CCC(=O)O[C@@H]1C[C@@H]2CC[C@@]1(C)C2(C)C` [Compound 3b], the “anti-RSV activity, temperature shift conditions (A)” value was “no anti-RSV activity”.
For `CC1(C)[C@H]2CC[C@]1(C)[C@H](OC(=O)CN1CCOCC1)C2` [Compound 5a] the value was “no anti-RSV activity”.
For `CC1(C)[C@H]2CC[C@]1(C)[C@H](OC(=O)CCN1CCCCC1)C2` [Compound 6b] the value was “no anti-RSV activity”.
